What all share (assay): Primary Screen for Target Class Profiling of Small Molecule Inhibitors of Methyltransferases
The target in assay [1] is Glycine N-methyltransferase (Homo sapiens) (UniProt Q14749). Particulars: purified enzyme, MTase-Glo SAH luminescence; measured here: GNMT inhibition; at 40 µM; stronger effect = lower value. The essentials: (§1)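 Each enzyme was assayed with SAM and its substrate. SAH formation detected by MTase-Glo luminescence; single-point 40 uM screen[…].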
Assay [2] has as its target Guanidinoacetate N-methyltransferase (Homo sapiens) (UniProt Q14353). The note with it: purified enzyme, MTase-Glo SAH luminescence; measured here: GAMT inhibition; at 40 µM; stronger effect = lower value. The essentials:
as §1

Assay [3] addresses Histamine N-methyltransferase (Homo sapiens) (UniProt P50135). The note with it: purified enzyme, MTase-Glo SAH luminescence; measured here: HNMT inhibition; at 40 µM; stronger effect = lower value. Put shortly: as §1
Assay [4] has as its target Nicotinamide N-methyltransferase (Homo sapiens) (UniProt P40261). Particulars: purified enzyme, MTase-Glo SAH luminescence; measured here: NNMT inhibition; at 40 µM; stronger effect = lower value. Put shortly: as §1
In assay [5] the target is Phenylethanolamine N-methyltransferase (Homo sapiens) (UniProt P11086). Particulars: purified enzyme, MTase-Glo SAH luminescence; measured here: PNMT inhibition; at 40 µM; stronger effect = lower value. The essentials: as §1

Structures are written as SMILES. Some of the results follow. These are further read-outs of the screen, such as a control signal, another cell line or another target. No call is given for them.
% is scaled to controls: 0 for no effect and ±100 for the full control effect.

For the molecule `CC(C)Cn1c(=O)c2ccc(C(=O)NC(C)C)cc2n2c(=O)n(CC(=O)c3cccc(Cl)c3)nc12`, the activity change, negative = inhibition in assay [1] was found to be 4.02%; in assay [2] it was 1.42%; in assay [3], 6.03%; in assay [4] it was 0.344%; in assay [5] it was 2.55%.
In the case of `Cc1cc(NS(=O)(=O)c2ccc3[nH]c(=O)[nH]c3c2)ccc1Br`, the activity change, negative = inhibition in assay [1] is 6.17%; in assay [2] it was 0%; in assay [3] it was 13.1%; in assay [4], -2.6%; in assay [5] it was -42.3%.
As to `CC1(C(=O)NC2CCCCCC2)Cn2c(cc3sccc32)C(=O)N1Cc1ccc(Cl)cc1` (stereo not given), the activity change, negative = inhibition in assay [1] was -7.14%; in assay [2], 4.99%; in assay [3], -5.11%; in assay [4] it was -5.54%; in assay [5] it was -7.35%.
On the same counts, the results for `O=C(Nc1ccccc1)N[C@H]1[C@H](O)[C@@H](N2CCCCC2)[C@@H]2OC[C@H]1O2` are -0.315%, -0.339%, 1.44%, 0.107% and -9.41%.
The matching figures for `COC[C@H]1C[C@@H](NC(=O)c2cc(C)oc2C(F)(F)F)[C@H](O)[C@@H]1O`: -1.48%, 1.24%, -9.22%, -1.94% and 10.6%.
On to `C[C@H]1CCCN1C(=O)c1nnc(COc2ccc(F)c(F)c2)n1-c1cccnc1`, for which the activity change, negative = inhibition is -3.87% in assay [1]; -1.97% in assay [2]; -0.003% in assay [3]; -10.2% in assay [4]; -0.688% in assay [5].
On the same counts, the results for `NC(=NCCCCCCN=C(N)/N=C(\N)Nc1ccc(Cl)cc1)/N=C(\N)Nc1ccc(Cl)cc1` are -32%, 9.54%, -93.2%, -63.3% and -65.7%.
As for `CC(C)[C@H]1CC[C@@]2(O)COC(=O)[C@H]2[C@@H]1/C=C(\CO)C(=O)O`, the activity change, negative = inhibition in assay [1] is 2.4%; in assay [2] it was 1.24%; in assay [3], 7.07%; in assay [4], -11.6%; in assay [5] it was -6.68%.
As to `CN(C)S(=O)(=O)N1[C@@H]2CC[C@H]1CC(NC(=O)c1ccc(F)cc1)C2` (stereo not given in full), the activity change, negative = inhibition was 0.655% in assay [1]; 0.69% in assay [2]; 4.19% in assay [3]; 1.9% in assay [4]; -7.22% in assay [5].
On the same counts, the results for `O=C(O)CCc1cccc(O[C@@H]2O[C@H](CO)[C@@H](O)[C@H](O)[C@H]2O)c1O` are 3.72%, 2.35%, 12.1%, -6.07% and 3.28%.
On the same counts, the results for `CC(C)(C)C(=O)C(Oc1ccc(Cl)cc1)n1ccnc1` (stereo not given) are 2.38%, -1.72%, 0.318%, -13.5% and -4.82%.
Consider `O=C1c2cc3occc3n2CC(C(=O)NC2CCCCCCC2)(c2ccccc2)N1Cc1ccc(Cl)cc1` (stereo not given), for which the activity change, negative = inhibition in assay [1] was 3.3%; in assay [2], 0%; in assay [3], 4.52%; in assay [4] it was 4.07%; in assay [5], -2.08%.
On the same counts, the results for `O=C(CCc1nnc2n(CCc3ccccc3)c(=O)c3ccccc3n12)NCCCN1CCCCC1` are -6.02%, 4.87%, -60.3%, 4.12% and -2.18%.
On the same counts, the results for `CC1(C(=O)NC2CCCCC2)Cn2c(cc3occc32)C(=O)N1CCc1ccccc1` (stereo not given) are -10.6%, 1.44%, -7.34%, -4.43% and -8.12%.
The matching figures for `CCOC(=O)c1cc2n(n1)CC(C)(C(=O)NCc1ccc(C)cc1)N(c1cccc(F)c1)C2=O` (stereo not given): -2.1%, 7.04%, 1.06%, -4.1% and -2.95%.
Consider `COc1ccccc1CNC(=O)C1(C)Cn2nc(-c3ccccc3)cc2C(=O)N1c1cc(C)ccc1C` (stereo not given), for which the activity change, negative = inhibition in assay [1] was determined as 0.822%; in assay [2], 0%; in assay [3], 2.54%; in assay [4], 3.2%; in assay [5] it was 0.375%.
The matching figures for `CC(C)OCCCNC(=O)C1c2c(n(C)c3ccccc23)SCC(=O)N1Cc1ccco1` (stereo not given): 9.33%, 0%, 1.46%, 4.41% and 4.87%.
On the same counts, the results for `Cn1c(=O)c2ccc(C(=O)NC3CCCC3)cc2n2c(=O)n(CC(=O)NC3CCCCC3)nc12` are 1.58%, 0%, 1.08%, -0.863% and 3.38%.
The matching figures for `COc1cccc(N2C(=O)c3cc4occc4n3CC2(C)C(=O)NC2CCCC(C)C2C)c1` (stereo not given): 2.46%, 0%, 5.07%, 7.96% and -0.285%.
`Cn1nccc1CN1CCCC2(COc3ccccc3C(=O)N2)C1` (stereo not given): the activity change, negative = inhibition in assay [1] was -8.77%; in assay [2], -0.327%; in assay [3] it was -1.9%; in assay [4], -9.14%; in assay [5], 7.15%.
On the same counts, the results for `Cc1nsc(NC(=O)N2CCC(CO)CC2)n1` are -1.04%, -1%, -1.47%, -0.23% and -7.93%.
On the same counts, the results for `Cc1ccc(CNC(=O)c2sc(=S)n3c2[nH]c(=O)c2cc4c(cc23)OCO4)cc1` are -4.31%, 3.46%, 5.13%, -11.3% and -3.47%.
Turning to `Cc1ccccc1N1CCN(C(=O)c2nnn3c2COC(c2ccc(Cl)cc2)C3)CC1` (stereo not given), the activity change, negative = inhibition in assay [1] was -1.62%; in assay [2] it was -1.83%; in assay [3], -3.04%; in assay [4], -6.54%; in assay [5], -0.938%.
On the same counts, the results for `COc1ccccc1CNC(=O)C1(C)Cn2nc(-c3ccccc3)cc2C(=O)N1c1cccc(F)c1` (stereo not given) are 4.61%, 0%, 7.39%, 8.14% and -8.72%.
For `Cn1ccnc1C(=O)C1CCCN(Cc2cc(=O)c3cccc(Cl)c3[nH]2)C1` (stereo not given), the activity change, negative = inhibition in assay [1] is -13.1%; in assay [2], -0.365%; in assay [3], -5.86%; in assay [4] it was -8.35%; in assay [5] it was 2.21%.
The matching figures for `CCCn1c(=O)c2cc(Cl)ccc2n2c(=O)n(CC(=O)Nc3cccc(F)c3)nc12`: -2.02%, 2.25%, 4.03%, -3.66% and -2.4%.
On the same counts, the results for `CCCn1c(=O)c2ccc(C(=O)NC(C)CC)cc2n2c(=O)n(CC(=O)c3ccc(F)cc3F)nc12` (stereo not given) are 1.46%, 0.343%, 3.16%, -1.64% and 3%.
Consider `CCc1cc2c(cc3n2CC(C)(C(=O)NC2CCCCCC2)N(CCCN2CCCCC2)C3=O)s1` (stereo not given), for which the activity change, negative = inhibition in assay [1] is -6.29%; in assay [2] it was 1.29%; in assay [3], -7.12%; in assay [4], -1.22%; in assay [5] it was -5.87%.

Source of the values: PubChem BioAssay AID1745853 (National Center for Advancing Translational Sciences (NCATS), 2022).
